# About 340 (0.77%) of roughly 44,000 compounds were called active. Inconclusive results (about 5%) are left out. The call rests on the fitted dose curve; in most records, active means well fitted inhibition curve with a large enough effect; inconclusive means small, poorly fitted or top-dose-only effect; inactive means flat fitted curve, though single readings scatter. This is one part of the list.
# Test: Acumen qHTS Assay for Inhibitors of the mTORC1 Signaling Pathway in MEF (Tsc2-/-, p53-/-) Cells: Sytravon; further: nearly all actives have a fitted effect of over 50% in size;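 on activity change, negative = inhibition: plate controls were DMSO for no effect and rapamycin for full effect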
# Settings: phospho-rpS6 immunofluorescence/PI, 24 h; series mostly up to 38.3 µM; activity change, negative = inhibition: at the top concentration
# How it was run: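 Immunofluorescence of rpS6 phosphorylation in Tsc2-/-, p53-/- MEFs after 24 h compound exposure, normalized to propidium iodide signal. Activity is expressed as % positive cells, thresholded with 7.5 nM rapamycin.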
# Potency means the concentration at half of the fitted maximal effect.
SMILES,"activity change, negative = inhibition",Potency
COc1ccc(-n2nc(C(=O)N3CCCC(C)C3)c3c4ccccc4n(C)c3c2=O)cc1Cl (configuration not stated),inactive: -11.8%,
CCN(CC)c1nc2ccccc2nc1C(=O)Nc1cc(OC)c(OC)c(OC)c1,inactive: -0.408%,
O=C(NC1CC(=O)N(c2ccccc2)C1)c1ccc(S(=O)(=O)N2CCCCC2)cc1 (configuration not stated),inactive: -3.54%,
Cc1nn(C(=O)c2ccc(Cl)cc2)c(C)c1S(=O)(=O)N1CCCCCC1,inactive: 0.587%,
Cc1nn2c(C)c(C(=O)NCc3ccco3)cnc2c1-c1ccccc1,inactive: -9.17%,
Cc1ccc(N2CCn3c2nc2c3c(=O)n(CCCc3ccccc3)c(=O)n2C)cc1C,inactive: 5.55%,
O=c1[nH]c(=O)n(C2CCCCC2)c(O)c1C1=Nc2ccccc2SC(c2ccccc2)C1 (configuration not stated),inactive: -15.8%,
COc1ccc(OCC(=O)NCC(c2ccc(OC)cc2)N2CCCCC2)cc1 (configuration not stated),inactive: -2.64%,
COc1ccc(C2C(C(=O)Nc3cccnc3)=C(C)Nc3nc(-c4ccccc4)nn32)cc1OC (configuration not stated),inactive: -4.26%,
COc1ccccc1NC(=O)C1=C(C)Nc2nc(SCc3ccccc3Cl)nn2C1c1ccccn1 (configuration not stated),inactive: -2.99%,
CN(C)c1ccc(/C=C/c2noc(-c3ccccc3O)n2)cc1,inactive: -4.07%,
CSc1ccc(CCNS(=O)(=O)c2ccc3c(c2)C(C)(C)C(=O)N3C)cc1,inactive: 10%,
O=c1c2ccccc2n2c(-c3ccc(Cl)cc3)nnc2n1CCc1ccccc1,inactive: -2.39%,
Cc1ccc(C(c2cccc(Br)c2)c2c(C)[nH]c3ccccc23)s1 (configuration not stated),inactive: -23.1%,
COc1cc(OC)cc(C(=O)N2CCN(C(=O)COc3ccccc3)CC2)c1,inactive: 7.74%,
CC(C)c1ccc(NC(=O)C(C)N(c2ccccc2)S(C)(=O)=O)cc1 (configuration not stated),inactive: 4.03%,
CC(C)C(NS(=O)(=O)c1ccc2c(c1)oc(=O)n2C)C(=O)NCCc1ccccc1 (configuration not stated),inactive: -0.586%,
COCCCNc1nc(NCc2cccc(Cl)c2)c2cnn(C)c2n1,inactive: 10.6%,
COc1ccc(-c2nc(CSc3nnc(C)n4c3cc3occc34)c(C)o2)cc1OC,inactive: 2.1%,
CCc1ccc(-n2nc(C)c3c(C)cc(=O)n(CC(=O)Nc4ccc(C(C)=O)cc4)c32)cc1,inactive: 6.82%,
O=C(Cn1ncc2c3ccccc3n(Cc3ccc(F)cc3)c2c1=O)NCCC1=CCCCC1,inactive: -0.0438%,
Cc1nn(C(=O)c2ccc(Cl)cc2)c(C)c1S(=O)(=O)N1CCOCC1,inactive: -2.56%,
Cc1c(C(=O)Nc2ccc(C(C)C)cc2)sc2nc3n(c(=O)c12)CCC3,inactive: 0%,
Cc1cn2c(=O)cc(COC(=O)c3cccc(NC(=O)c4ccccc4Cl)c3)nc2s1,inactive: 6.17%,

SMILES,"activity change, negative = inhibition",Potency
CCc1ccc(CNC(=O)CN2C(=O)CSc3c2c(C)nn3-c2ccccc2)cc1,inactive: -5.11%,
COc1ccc(NC(=O)CC2C(=O)N(c3cccc(C)c3)C(=O)N2Cc2cccnc2)cc1 (configuration not stated),inactive: -5.45%,
Cc1ccc(CNc2ncnc3c2nnn3C)cc1,inactive: -6.4%,
Cc1ccc(C)c(NC(=O)Nc2csc3c2CCCC3)c1,inactive: -10.9%,
CCOc1ccc2nc(N3CCCC(C(=O)NCc4ccc(C)cc4)C3)sc2c1 (configuration not stated),inactive: -0.477%,
CC(C)NC(=O)C1CCN(C(=O)N2CC(C)Oc3ccccc32)CC1 (configuration not stated),inactive: 5.53%,
COc1ccccc1NC(=O)Cn1c(=O)n(Cc2nc(-c3ccccc3)no2)c(=O)c2ccccc21,inactive: -5.17%,
CCC1=C(c2ccc(C)cc2)S(=O)(=O)N=C1N1CCC(C(=O)N2CCCCC2)CC1,inactive: -3.96%,
CCS(=O)(=O)NCCc1csc2nc(-c3ccc(C)cc3)nn12,inactive: 0.848%,
COc1ccc(NC(=O)Cn2cc(C(=O)c3cccs3)c3ccccc32)cc1,inactive: -17.4%,
O=C(COCc1cc(-c2cccs2)on1)Nc1cccc(O)c1,inactive: 0.435%,
Cc1cccc(-n2c(-c3ccco3)nc3c(cnn3-c3ccc(F)cc3)c2=O)c1,inactive: -4.24%,
Cc1ccc(-n2cnc3cc(C(=O)NC4CCCCCC4)ccc32)cc1Cl,inactive: 0%,
COC(=O)c1c(C)sc(-c2c(-c3ccc4c(c3)OCCO4)[nH]c3c2c(=O)[nH]c(=O)n3C)c1O,inactive: -1.09%,
COc1ccc(-c2nn(C)c3sc(C(=O)N4CCN(c5cccc(Cl)c5)CC4)cc23)cc1OC,inactive: 4.15%,
CC1CCc2c(sc(NC(=O)c3cc(-c4ccc(Br)cc4)on3)c2C(N)=O)C1 (configuration not stated),inactive: 0.717%,
Cc1c(CNCCCc2ccccc2)c(C(=O)O)c(C)n1Cc1cccc(Cl)c1,inactive: -0.172%,
COc1ccc(NC(=O)C2CCN(S(=O)(=O)c3c(C)noc3/C=C/c3ccc(C)cc3)CC2)cc1Cl,inactive: 2.02%,
COc1ccc(S(=O)(=O)c2cn(C)c3cc(N4CCOCC4)c(F)cc3c2=O)cc1,inactive: 1.07%,
Cc1ccc(NS(=O)(=O)c2ccc3[nH]c4c(c3c2)CCCCC4)cc1,inactive: -11.9%,
Cc1ccc(OCc2cc(=O)n3cc(C)sc3n2)c(C)c1,inactive: -3.36%,
CCc1ccc(OCC(=O)Nc2ccc(Cl)c(-c3nc4ncccc4o3)c2)cc1,inactive: -4.1%,
CCc1ccc(OCC(=O)Nc2ccc3oc(-c4ccc(OC)cc4)nc3c2)cc1,,active: 13.1 µM

# Reference: PubChem BioAssay AID493208 (National Center for Advancing Translational Sciences (NCATS), 2011)
